Reference: publication PMC4336329 (PLoS ONE, 2015)
Screen size: about 310,000 compounds; about 2,200 (0.71%) showed an effect of 50% or more. The effect is printed as a negative number. The list shows a part of the results.

The compounds below were run against human ether-à-go-go-related gene (hERG) potassium channel (human, UniProt Q12809) (assay: primary screen, population patch clamp on CHO cells stably expressing hERG).
Chain of human ether-à-go-go-related gene (hERG) potassium channel (Q12809 whole entry, looked up): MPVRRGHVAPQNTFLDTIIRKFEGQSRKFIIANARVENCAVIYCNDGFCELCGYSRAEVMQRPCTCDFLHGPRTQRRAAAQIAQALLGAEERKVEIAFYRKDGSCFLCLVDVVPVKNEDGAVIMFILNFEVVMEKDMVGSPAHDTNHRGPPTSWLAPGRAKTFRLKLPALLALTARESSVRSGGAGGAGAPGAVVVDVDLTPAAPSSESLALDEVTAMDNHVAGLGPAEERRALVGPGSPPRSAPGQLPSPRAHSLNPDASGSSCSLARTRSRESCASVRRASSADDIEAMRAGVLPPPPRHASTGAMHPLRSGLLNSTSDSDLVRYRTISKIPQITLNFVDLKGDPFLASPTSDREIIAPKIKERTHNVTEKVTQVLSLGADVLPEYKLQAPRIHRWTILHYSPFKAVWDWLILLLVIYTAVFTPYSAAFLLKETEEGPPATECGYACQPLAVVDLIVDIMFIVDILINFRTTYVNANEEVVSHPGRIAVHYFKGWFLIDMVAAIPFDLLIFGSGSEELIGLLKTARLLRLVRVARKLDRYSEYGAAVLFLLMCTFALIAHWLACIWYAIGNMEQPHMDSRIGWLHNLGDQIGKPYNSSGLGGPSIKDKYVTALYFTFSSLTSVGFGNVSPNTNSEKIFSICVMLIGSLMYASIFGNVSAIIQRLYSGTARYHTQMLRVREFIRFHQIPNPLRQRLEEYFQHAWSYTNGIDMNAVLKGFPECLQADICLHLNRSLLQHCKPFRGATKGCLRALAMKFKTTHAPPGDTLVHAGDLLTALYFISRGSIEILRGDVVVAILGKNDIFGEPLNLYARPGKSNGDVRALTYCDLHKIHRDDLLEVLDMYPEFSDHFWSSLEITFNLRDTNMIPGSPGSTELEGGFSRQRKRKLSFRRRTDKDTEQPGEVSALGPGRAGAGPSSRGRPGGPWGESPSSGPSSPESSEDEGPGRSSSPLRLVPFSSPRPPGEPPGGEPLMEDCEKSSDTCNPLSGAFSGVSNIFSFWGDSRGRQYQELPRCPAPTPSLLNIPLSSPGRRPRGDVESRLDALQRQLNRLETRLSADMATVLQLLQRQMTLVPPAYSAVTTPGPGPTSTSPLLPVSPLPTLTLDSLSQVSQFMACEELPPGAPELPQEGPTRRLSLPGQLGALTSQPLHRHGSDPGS

Compound	hERG current change (%, negative = inhibition) at 1uM [%]
Cc1cc(S(=O)(=O)N2CCCC2)ccc1OCC(=O)Nc1ccc(C(N)=O)cc1	13.4
O=C(NCc1ccc(F)cc1)c1cnc2sccn2c1=O	6.24
COCCn1c(C)cc(C2=NNC(=Nc3ccc(F)cc3)SC2)c1C	3.67
CCN(CC)S(=O)(=O)c1ccc(OC)c(N)c1	12.2
CCN(C(=O)COC(=O)c1[nH]c(C)c(C(C)=O)c1C)c1c(N)n(Cc2ccccc2)c(=O)[nH]c1=O	5.07
COc1ccc(CCNC(=O)c2cnccn2)cc1	14.9
COc1ccc(C(=O)N/C(=C/c2ccco2)C(=O)N2CCCCCC2)cc1	11.5
Cc1csc(=Nc2cccnc2)n1Cc1ccco1	8.97
CCN1C(=O)/C(=C\N2CCCc3ccccc32)SC1=S	13.4
CC(C)[C@@H](C(=O)N1CCN(C(=O)OC(C)(C)C)CC1)n1cc(CCO)nn1	14.7
CC1=NN(c2nc3ccccc3[nH]2)C(=O)/C1=C/N(C)C	-8.98
O=C(Nc1ccccc1)O/N=C1/CCCc2occc21	13.3
CS(=O)(=O)c1cnc(-c2ccccc2)nc1-c1ccccc1Cl	7.74
COc1ccc(-n2c(SCC(=O)Nc3nc(C)cs3)nnc2-c2ccoc2C)cc1	-85
COc1cc(CCN2C(=O)c3cccc4cccc(c34)C2=O)c(S(=O)(=O)NCCCO)cc1OC	11.7
Cc1nn(C)c(C)c1CNC(=O)Nc1ccc2c(c1)OCO2	2.79
Cc1cc(SCC(=O)NC2CCCC2)nc2ccccc12	4.22
CCC(C(=O)OC)n1cnc2c(nnn2-c2cccc(Cl)c2)c1=O (centres unmarked)	5.53
CCC(=O)N1CCc2cc(S(=O)(=O)NCCC(=O)N3CCN(Cc4ccccc4)CC3)ccc21	-1.95
COC(=O)c1cc(NC(=O)CSc2nnc(CN3CCOCC3)n2C)ccc1Cl	7.43
O=C(CSc1nc2c(sc3ccccc32)c(=O)n1CCCN1CCCC1)NCc1ccco1	-70.1
CCCc1nc2ccccc2c(C(=O)OCC(=O)Nc2ccc(S(=O)(=O)N3CCOCC3)cc2)c1CC	15.9
Cc1ccc(NC(=O)N2CCCC2C(=O)NCc2cccs2)cc1 (centres unmarked)	2.72

Compound	hERG current change (%, negative = inhibition) at 1uM [%]
COCCOc1ccc(C(F)(F)F)cc1NC(=O)c1ccc(C)cc1	7.05
CC(=O)c1cccc(N=C2NC(=O)CS2)c1	13.8
COC(=O)/C(=N/Nc1ccccc1OC)N1CCCc2ccccc21	7.32
CCCCNC(=O)COC(=O)c1ccc(N(C)C)cc1	11.6
O=C(CN1C(=O)S/C(=C/c2ccc(N3CCOCC3)cc2)C1=O)N1CCOCC1	-0.132
Cc1ccc(/C=C2/SC(=O)N(CC(=O)N3CCOCC3)C2=O)s1	0.684
CCC(C)N1CNc2c(c(=O)[nH]c(=S)n2-c2cccc(C)c2)C1 (centres unmarked)	2.81
Nc1nc(CCl)nc(N(c2ccccc2)c2ccccc2)n1	11.4
CC1(c2ccccc2)ON(c2ccccc2C(F)(F)F)C1=O (centres unmarked)	7.04
CN1CCC(N2CC3CC(C2)c2cccc(=O)n2C3)CC1 (centres unmarked)	-5.91
Cc1cnc(NC(=O)CSc2nnc(C)s2)s1	16.9
COc1ccc(C2NC(=O)NC(O)(C(F)(F)F)C2C(=O)c2ccccc2)cc1OC (centres unmarked)	-7.26
COc1cc2c(cc1NS(=O)(=O)N1CCCC1)oc1ccccc12	-2.96
O=C(O)CCC(=O)c1cccc2ccccc12	10.3
CN(C)S(=O)(=O)N1CCC(CCCC2CCN(S(=O)(=O)N(C)C)CC2)CC1	6
COc1ccc(Cl)cc1NC(=O)COC(=O)CCCN1C(=O)c2ccccc2C1=O	12.6
Cc1ccc(Cl)c(NC(=O)COC(=O)c2nn(C)c(=O)c3ccccc23)c1Cl	9.96
O=C(Oc1cccc2c(OC(=O)N3CCCC3)cccc12)N1CCCC1	-24
O=C(O)Cc1cn(-c2ccccc2)nc1-c1ccccc1	8.68
CCCc1cc(=O)oc2cc(C)cc(OC(C)C(=O)NCCN3CCOCC3)c12 (centres unmarked)	3.73
O=C(CSc1nnc2c(n1)[nH]c1ccccc12)Nc1cccc(S(=O)(=O)N2CCOCC2)c1	8.47
Cc1cc(N2CCCC2)c(C)cc1C=O	-11.6
CC(=O)c1ccc(NC(=O)COC(=O)CCC(=O)c2cccs2)cc1	13.7

Compound	hERG current change (%, negative = inhibition) at 1uM [%]
COc1ccc(S(=O)(=O)N(C)CC(=O)Nc2cccc(C(C)=O)c2)cc1Cl	-1.17
O=C(Cc1ccc(Br)cc1)NC1CCCc2ccccc21 (centres unmarked)	11.7
CCc1ccccc1Nc1ccc(C(=O)O)cc1N	15.9
CCC1=Nc2cc(C(=O)N3CCC4(CC3)OCCO4)ccc2Sc2ccc(Br)cc21	12.4
COCCN1CCN(c2c3c(nc4cc(-c5cccc(F)c5)nn24)CCC3)CC1	-3.12
Cc1cccc(C)c1NC(=O)CN1C(=O)COc2ccccc21	12.6
O=C(Nc1ccc(N2CCCC2)cc1)c1ccc(Cl)cc1Cl	13.3
Cc1nc2ccccn2c1C(=O)N/N=C/c1ccccc1	5.44
COc1cccc(Cn2c(N)c(C#N)c3nc4ccccc4nc32)c1OC	12
Cc1cc(Cl)c(C)c(S(=O)(=O)N2CCN(CC(=O)N3CCOCC3)CC2)c1Cl	-14.9
COCCn1c(-c2ccc(OC)cc2)cnc1SCC(=O)Nc1cccc2ccccc12	-10.1
COc1cccc2cc(C(=O)Oc3ccc(NC(C)=O)cc3)c(=O)oc12	-0.0939
CC(=O)Nc1ccc(SCC(=O)Nc2cc(C(C)(C)C)nn2-c2ccccc2)cc1	8.28
COc1cccc(NC(=O)CCS(=O)(=O)c2ccc3c(c2)oc(=O)n3C)c1	20.9
C/C(=N\NC(=O)c1csc(C)c1C)c1ccco1	10.2
O=C(c1cc2cccc([N+](=O)[O-])c2oc1=O)N1CCOCC1	12.2
COc1ccc(CCn2c(C(C)C)nc3oc4ccccc4c(=O)c3c2=O)cc1	-25.1
CSc1ccccc1NC(=O)CN(C)Cc1ccc(Br)cc1	0.638
Cc1onc(-c2c(F)cccc2Cl)c1C(=O)Nc1sc2c(c1C(N)=O)CCC2	1.54
CC(=O)N1CN(C2CCCC2)Cc2c1sc1c2CCCC1	10.7
Cc1cccc(N(CC(N)=O)C2SC(=O)NC2=O)c1 (centres unmarked)	1.4
CN(C)S(=O)(=O)c1cccc(NC(=O)COc2ccc3ccccc3c2)c1	3.28
COC(=O)c1[nH]c2ccc(Cl)cc2c1NC(=O)Oc1ccccc1	13.4

Compound	hERG current change (%, negative = inhibition) at 1uM [%]
CCOC(=O)C1(CCCc2ccccc2)CCN(C(=O)COC)CC1	10.5
CSc1ccc(/C=C(\C(=O)O)c2ccc(S(=O)(=O)N3CCCC3)s2)cc1	0.93
Cc1ccsc1CN(C)C(=O)C(NC(=O)c1cccc(S(=O)(=O)N2CCOCC2)c1)C(C)C (centres unmarked)	-10.3
Cc1cc(NC(=O)C(C)C)ncc1NC(=O)c1cccc(F)c1	15.3
CN(CC(=O)NCC(c1ccco1)N1CCCCC1)S(=O)(=O)c1ccc(Cl)cc1 (centres unmarked)	6.87
CC(C)C[C@H](NC(=O)N1CCn2c1nc1ccccc12)C(=O)NC1CC1	6.04
CC(C)CCN1CCN(Cc2ccc(Oc3ncccn3)cc2)CC1CCO (centres unmarked)	3.78
CN(C)S(=O)(=O)c1ccc(S(=O)(=O)NCc2ccc3c(c2)OCO3)cc1	7.94
FC(F)(F)c1ccc(Oc2ccc3ccccc3c2Br)nc1	8.16
CCC(=O)N(Cc1ccc(S(N)(=O)=O)cc1)C1CC(=O)N(c2ccc(OC)cc2)C1=O (centres unmarked)	6.33
CCOc1ccc(CCNC(=O)c2ccc(CNS(=O)(=O)c3ccccc3)cc2)cc1OCC	7.92
N=C1SC(c2ccccc2)C(=O)N1c1ncc(Cc2ccccc2Cl)s1 (centres unmarked)	3.19
C=CCOc1ccc(/C=C/C(C)=N\O)cc1	4.21
Cc1[nH]c2ccccc2c1/C=N/NC(=O)c1cccc(F)c1	11.3
NC(=O)Cn1c(=O)n(C2CCCCC2)c(=O)c2c3c(sc21)CCCCC3	10.3
O=C(Cn1cc([N+](=O)[O-])cn1)NCc1ccccc1	16.8
O=C(OC1CCOC1=O)C1CCN(S(=O)(=O)c2c(Cl)cccc2Cl)CC1 (centres unmarked)	11.5
CC1CCN(S(=O)(=O)c2cn(CC(=O)Nc3ccc(C#N)cc3)cn2)CC1	8
COc1ccc2c(c1)c(C(=O)N/N=C/c1ccc(O)c(O)c1)c(C)n2C	13.3
COc1cccc(OCCCCN2CC(C)OC(C)C2)c1.O=C(O)C(=O)O (centres unmarked)	8.93
